Ten molecules from patent publication US20250066451A1 (SWEDISH ORPHAN BIOVITRUM AB PUBL, published 2025) can be followed below.

Values joined by “and” are separate entries in the source; they are usually repeats but may differ in a detail not shown here. Equal values may be shown once. Read-outs that look alike come from different tables or passages of the source.

The target in test [1] is T1, human IL-1R-I on Normal Human Dermal Fibroblasts (NHDF) cells (human, UniProt P14778 18-569).
T1 sequence (looked up): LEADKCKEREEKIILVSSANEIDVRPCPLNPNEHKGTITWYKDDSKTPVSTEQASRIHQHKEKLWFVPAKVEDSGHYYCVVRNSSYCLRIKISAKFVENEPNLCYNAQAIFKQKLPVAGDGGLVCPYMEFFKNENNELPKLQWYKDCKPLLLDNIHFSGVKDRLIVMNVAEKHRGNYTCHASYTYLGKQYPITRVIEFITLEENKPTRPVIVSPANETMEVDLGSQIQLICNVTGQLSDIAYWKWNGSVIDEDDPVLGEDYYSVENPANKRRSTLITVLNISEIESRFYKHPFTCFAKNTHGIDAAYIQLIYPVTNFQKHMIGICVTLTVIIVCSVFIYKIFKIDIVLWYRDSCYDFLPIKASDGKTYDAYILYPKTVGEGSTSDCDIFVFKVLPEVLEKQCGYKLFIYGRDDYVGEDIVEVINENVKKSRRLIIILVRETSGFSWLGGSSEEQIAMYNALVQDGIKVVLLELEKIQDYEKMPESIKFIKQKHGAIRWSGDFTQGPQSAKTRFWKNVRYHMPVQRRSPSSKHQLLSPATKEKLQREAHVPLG
Briefly: cell-based or functional assay.

In test [2] the target is T2, IL-1R-I on cells (TF-1 cells, NHDF cells, human whole blood) (human, UniProt P14778 18-569).
T2 sequence (looked up): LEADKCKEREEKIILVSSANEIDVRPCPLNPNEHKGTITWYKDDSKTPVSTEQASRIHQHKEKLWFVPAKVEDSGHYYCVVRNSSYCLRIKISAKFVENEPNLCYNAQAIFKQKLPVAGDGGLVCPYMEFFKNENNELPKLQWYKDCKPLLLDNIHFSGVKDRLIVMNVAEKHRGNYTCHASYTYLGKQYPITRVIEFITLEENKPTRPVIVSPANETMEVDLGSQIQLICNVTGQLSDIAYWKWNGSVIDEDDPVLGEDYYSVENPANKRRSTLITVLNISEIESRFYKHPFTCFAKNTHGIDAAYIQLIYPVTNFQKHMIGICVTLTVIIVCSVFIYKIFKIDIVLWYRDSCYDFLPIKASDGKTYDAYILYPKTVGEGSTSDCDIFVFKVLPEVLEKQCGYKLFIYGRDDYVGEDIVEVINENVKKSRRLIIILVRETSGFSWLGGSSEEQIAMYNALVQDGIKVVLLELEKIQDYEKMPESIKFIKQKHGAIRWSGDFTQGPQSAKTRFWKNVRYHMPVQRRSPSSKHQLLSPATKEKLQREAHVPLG
Briefly: cell-based or functional assay.

In test [3] the target is T1, human IL-1R-I on Normal Human Dermal …. Briefly: cell-based or functional assay. This is another data set of the same source.
For test [4], the target named is T3, human IL-1R-I (R&D systems cat. no. 269-1R/CF) (human, UniProt P14778 18-332, limits assumed).
T3 construct: Soluble bought protein used as analyte in BLI; also called hIL-1R-I; hIL-1RI
T3 sequence (looked up): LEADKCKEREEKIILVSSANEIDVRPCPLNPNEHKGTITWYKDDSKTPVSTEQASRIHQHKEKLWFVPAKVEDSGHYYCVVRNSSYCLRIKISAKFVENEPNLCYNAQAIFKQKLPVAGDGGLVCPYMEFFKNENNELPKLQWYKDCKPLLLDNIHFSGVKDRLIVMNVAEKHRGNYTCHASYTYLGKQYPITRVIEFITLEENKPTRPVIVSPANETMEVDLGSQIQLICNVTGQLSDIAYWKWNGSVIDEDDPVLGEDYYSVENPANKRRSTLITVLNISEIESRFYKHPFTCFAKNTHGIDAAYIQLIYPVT
Briefly: BLI (OctetRED96), Z-Fc loaded on Protein A sensor, IL-1R-I as analyte, 1:1 Langmuir global fit.

The next test concerns the target T4, cynomolgus IL-1R-I-His6 (cynomolgus, UniProt P14778 19-332 (human entry), limits assumed).
T4 construct: expressed in FreeStyle 293-F cells and IMAC purified; also called cIL-1R-I-His6
T4 chain: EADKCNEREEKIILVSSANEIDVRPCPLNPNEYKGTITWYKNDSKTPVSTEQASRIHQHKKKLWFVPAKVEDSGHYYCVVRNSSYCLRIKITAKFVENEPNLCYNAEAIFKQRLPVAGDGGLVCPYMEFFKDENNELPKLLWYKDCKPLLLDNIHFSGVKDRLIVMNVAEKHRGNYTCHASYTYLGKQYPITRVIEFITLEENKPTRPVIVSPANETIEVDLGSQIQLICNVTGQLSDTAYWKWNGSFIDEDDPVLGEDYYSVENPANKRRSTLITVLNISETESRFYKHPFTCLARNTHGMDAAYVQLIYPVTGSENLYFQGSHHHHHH
The test is described as above.

B1: PSI0653 (Z18754[N297A]-IgG1 Fc) (Fc fusion)
chain: AEAKYAKEVEEIQMEIFRLPNLTRRQYTAFIRKLLDDPSQSSELLSEAKKLSESQAPKASGGGGSGGGGS[sequence of human IgG1 Fc with changes omitted]
Consider B1, for which, in test [1], the “IC50 (pM), inhibition of IL-1B induced IL-6 release in NHDF cells” value (from here on “IC50 (pM), inhibition”) was 4.3 pM.

B2: PSI0536: Z18754[V1A; D2E; N52S; D53E]-AS(G4S)2-IgG1 Fc (Fc fusion)
chain: AEAKYAKEVEEIQMEIFRLPNLTRRQYTAFIRKLLDDPSQSSELLSEAKKLSESQAPKASGGGGSGGGGS[sequence of human IgG1 Fc omitted]
In the case of B2, in test [2], the “median IC50, IL-1B induced IL-6 release in human whole blood” value was 0.32 nM.

B3: PSI0539 (Z18760[V1A; D2E; N52S; D53E]-AS(G4S)2-IgG1 Fc) (Fc fusion)
chain: AEAKYAKETEAVQMEIFALPNLTRRQYTAFIRKLLDDPSQSSELLSEAKKLSESQAPKASGGGGSGGGGS[sequence of human IgG1 Fc omitted]
As to B3, in test [3], the “IC50 (pM), inhibition” value was 240 pM and 110 pM.

B4: PSI0536 (Z18754[V1A; D2E; N52S; D53E]-AS(G4S)2-IgG1 Fc) (Fc fusion)
chain: AEAKYAKEVEEIQMEIFRLPNLTRRQYTAFIRKLLDDPSQSSELLSEAKKLSESQAPKASGGGGSGGGGS[sequence of human IgG1 Fc omitted]
notes: expressed in E. coli
Regarding B4, in test [3], the “IC50 (pM), inhibition” value is 66 pM and 45 pM. In test [4], this molecule came in with a Kd of 0.75 nM, an off-rate constant (koff) of 0.000679 s⁻¹ and a kon of 899000 M⁻¹ s⁻¹. In the test with cynomolgus IL-1R-I-His6, this molecule came in with a Kd of 14 nM, a koff of 0.0234 s⁻¹ and a kon of 1.7e+06 M⁻¹ s⁻¹.

B5: PSI0538 (Z18874[V1A; D2E; N52S; D53E]-AS(G4S)2-IgG1 Fc) (Fc fusion)
chain: AEAKYAKELEAIQMEIFHLPNLTRRQYTAFIRKLLDDPSQSSELLSEAKKLSESQAPKASGGGGSGGGGS[sequence of human IgG1 Fc omitted]
Regarding B5, the “IC50 (pM), inhibition” value in test [3] was 87 pM and 70 pM.

B6: PSI0534 (Z18831[V1A; D2E; N52S; D53E]-AS(G4S)2-IgG1 Fc) (Fc fusion)
chain: AEAKYAKEIEEVQMEIFYLPNLTRRQYTAFIRKLLDDPSQSSELLSEAKKLSESQAPKASGGGGSGGGGS[sequence of human IgG1 Fc omitted]
notes: expressed in E. coli
With B6, the “IC50 (pM), inhibition” value in test [3] was 140 pM and 110 pM. In addition, in test [4], binding was characterised by a dissociation constant (Kd) of 1.6 nM, the koff is 0.000642 s⁻¹ and the kon stood at 404000 M⁻¹ s⁻¹. In the test with cynomolgus IL-1R-I-His6, this molecule yielded a Kd of 28 nM, a koff of 0.0299 s⁻¹ and a kon of 1.08e+06 M⁻¹ s⁻¹.

B7: PSI0537 (Z19151[V1A; D2E; N52S; D53E]-AS(G4S)2-IgG1 Fc) (Fc fusion)
chain: AEAKYAKEVEDIQLEIFALPNLTRRQYTAFIRKLLDDPSQSSELLSEAKKLSESQAPKASGGGGSGGGGS[sequence of human IgG1 Fc omitted]
notes: expressed in E. coli
Turning to B7, the “IC50 (pM), inhibition” value in test [3] is 260 pM and 200 pM. In test [4], this molecule returned a Kd of 1.2 nM, a koff of 0.00102 s⁻¹ and a kon of 841000 M⁻¹ s⁻¹. In the test with cynomolgus IL-1R-I-His6, this molecule came in with a dissociation constant Kd of 31 nM, a koff of 0.0548 s⁻¹ and a kon of 1.78e+06 M⁻¹ s⁻¹.

B8: PSI0537: Z19151[V1A; D2E; N52S; D53E]-AS(G4S)2-IgG1 Fc (Fc fusion)
chain: AEAKYAKEVEDIQLEIFALPNLTRRQYTAFIRKLLDDPSQSSELLSEAKKLSESQAPKASGGGGSGGGGS[sequence of human IgG1 Fc omitted]
Regarding B8, in test [2], the “median IC50, IL-1B induced IL-6 release in human whole blood” value was 1.25 nM.

B9: PSI0535 (Z18846[V1A; D2E; N52S; D53E]-AS(G4S)2-IgG1 Fc) (Fc fusion)
chain: AEAKYAKEIEEIQMEIFHLPNLTRRQYTAFIRKLLDDPSQSSELLSEAKKLSESQAPKASGGGGSGGGGS[sequence of human IgG1 Fc omitted]
notes: expressed in E. coli
B9: in test [3], the “IC50 (pM), inhibition” value was 80 pM and 50 pM. Besides, in test [4], the Kd was found to be 0.72 nM, the koff stood at 0.000421 s⁻¹ and the kon amounted to 583000 M⁻¹ s⁻¹. In the test with cynomolgus IL-1R-I-His6, this molecule gave a Kd of 11 nM, a koff of 0.0166 s⁻¹ and a kon of 1.49e+06 M⁻¹ s⁻¹.

B10: PSI0656 (Z18754[S228P]-IgG4 Fc) (Fc fusion)
chain: AEAKYAKEVEEIQMEIFRLPNLTRRQYTAFIRKLLDDPSQSSELLSEAKKLSESQAPKASGGGGSGGGGS[sequence of human IgG4 Fc with S228P (EU numbers) omitted]
Turning to B10, in test [1], the “IC50 (pM), inhibition” value is 8.4 pM.

Broadly, the Kd is the free concentration of one partner at which half of the binding sites on the other are occupied at equilibrium, for simple one-to-one binding. As usually defined, the koff is the rate constant with which the complex falls apart. A lower koff goes with slow dissociation. The term kon denotes the rate constant with which the complex forms. A low value points to slower complex formation.
